Some of the results follow. These are further read-outs of the screen, such as a control signal, another cell line or another target. No call is given for them. Most of these compounds were active or inconclusive in the main read-out, so they are no random draw. Words in brackets tell the shape of the fitted curve; partial curves, single points and poor fits give uncertain potencies.
Tags give direction and shape of the fitted curve.

The nature of the first experiment: qHTS Assay for Lipid Storage Modulators (AID 1519). The settings on record: Drosophila S3 cells, BODIPY lipid droplet/cell ratio, laser cytometry; measured here: cell count channel max response; cells loaded with oleic acid. An outline of the steps:
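Cells seeded at 5,000 per well were treated with compounds over a concentration series and loaded with oleic acid (400 uM, as added). Lipid droplet fluorescence (488 nm excitation, 500-530 nm channel) was read by laser-scanning cytometry and normalized to 20 uM Triacsin C.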
(Quantitative high-throughput screening tests each substance at several concentrations.)
As to `CC(C)=CCCC1(C)C=Cc2c(O)c3c(c(CC=C(C)C)c2O1)OC12C(CC4CC1C(C)(C)OC2(C/C=C(/C)C(=O)O)C4O)C3=O` (stereo unspecified), the max response is -13.5%. Take `C[C@@H](CO)NC(=O)[C@@H]1C=C2c3cccc4[nH]cc(c34)C[C@H]2N(C)C1`: the max response was 72.1%.

For `O=C(NC(=O)c1c(F)cccc1F)Nc1ccc(Cl)cc1`, the max response was determined as 12.8%.

`COc1ccc2c(c1O)-c1c(OC)c(OC)cc3c1[C@@H](C2)N(C)CC3`: the max response was 24.8%. Still for that read-out and setting: for `CNNC` the value was 20.8%. As to `O=c1cccc2n1CC1CNCC2C1` (stereo unspecified), the max response worked out at 6.91%. `CNC(C)C1CC[C@H](N)[C@@H](OC2C(N)C[C@H](N)[C@@H](OC3OC[C@](C)(O)C(NC)[C@H]3O)C2O)O1` (stereo partly specified): the max response worked out at 25.7%. As to `CC(=O)Nc1cc([As](=O)(O)O)ccc1O`, the max response came to 29.4%. In the case of `O=C(c1ccco1)N1CCC2(CC1)CN(Cc1ccncc1)C2`, the max response stood at 19.7%. As for `CN1C2CCC1CC(NC(=O)c1nn(C)c3ccccc13)C2` (stereo unspecified), the max response amounted to 40.7%. As for `C[N+]1(C)C2CC(OC(=O)C(CO)c3ccccc3)CC1C1OC12` (stereo unspecified), the max response was 18.4%. `COc1ccc(NC(=O)N2CC[C@@]3(CCCN(C(=O)Oc4ccccc4)C3)C2)cc1`: the max response is 21%. Take `CC(=O)Oc1ccc(/C=C/c2cc(OC(C)=O)cc(OC(C)=O)c2)cc1`: the max response worked out at 5.96%.

As to `CC[C@@]1(O)CC(O)c2c(cc3c(c2O)C(=O)c2c(O)ccc(O)c2C3=O)C1C(=O)OC` (stereo partly specified), the max response is -26.7%. Take `CN1CC[C@@]2(C)c3cc(O)ccc3N(C)[C@@H]12`: the max response is 34.2%. Turning to `C/C=C1/C[C@@H](C)[C@](O)(CO)C(=O)OCC2=CCN3CC[C@@H](OC1=O)C23` (stereo partly specified), the max response worked out at 22.9%.

For `O=C(Oc1ccccc1)N1CCC[C@@]2(CCN(Cc3cc(C(F)(F)F)cc(C(F)(F)F)c3)C2)C1`, the max response stood at 19.1%. Take `CC1CC(Cl)CCC1C(=O)OC(C)(C)C` (stereo unspecified): the max response is 25.2%. With `CC(=O)OCC1=C(C(=O)O)N2C(=O)C(NC(=O)CCCC(N)C(=O)O)C2SC1` (stereo unspecified), the max response was 18.9%. Take `C[C@H]1CCCC=CC2C[C@H](O)C[C@@H]2[C@H](O)/C=C\C(=O)O1` (stereo partly specified): the max response was found to be 17.7%. Same read-out and setting: for `CCC1C2CC3C4N(C)c5ccccc5[C@]45CC(C2C5O)N3C1O` (stereo partly specified) the value was 28.9%. Regarding `COc1ccc(C(=O)O)cc1OC`, the max response is 21.5%. Same read-out and setting: for `CC[C@@H]1CN2CCc3cc(OC)c(OC)cc3[C@H]2C[C@@H]1C[C@H]1NCCc2cc(OC)c(OC)cc21` the value was -23.1%. For the compound `COc1ccc(CC2NC[C@H](O)[C@H]2OC(C)=O)cc1` (stereo partly specified), the max response amounted to 1.85%. Take `CN1CC[C@@]2(c3cccc(O)c3)Cc3nc4ccccc4cc3C[C@H]2C1`: the max response was found to be 6.58%.

In the case of `CC(=O)Oc1ccc(Cl)c2cccnc12`, the max response was -9.31%. For the compound `CN(CCC(N)CC(=O)NC1C=CC(n2ccc(N)nc2=O)OC1C(=O)O)C(=N)N` (stereo unspecified), the max response was determined as 21.1%. `O=[N+]([O-])c1ccc(O)c([N+](=O)[O-])c1`: the max response was -14.6%. `CCCCC/C=C\C/C=C\C/C=C\C/C=C\CCCC(=O)Nc1ccc(O)cc1`: the max response stood at 19.7%. As for `C[C@H]1O[C@H](O[C@H]2[C@H](O)[C@@H](O)[C@@H](O)[C@H](O)[C@@H]2O)[C@@H](N)C[C@@H]1NC(=N)C(=O)O`, the max response turned out to be 27.5%. Consider `CCCN(C/C=C\I)[C@@H]1CCc2ccc(O)cc2C1`, for which the max response came to 33.2%. Same read-out and setting: for `CC(C)CC1C(=O)N2CCCC2C2(O)O[C@@](NC(=O)C3C=C4c5cccc6[nH]c(Br)c(c56)CC4N(C)C3)(C(C)C)C(=O)N12` (stereo partly specified) the value was -13.9%. As to `CN1CCN(C(=O)OC2c3nccnc3C(=O)N2c2ccc(Cl)cn2)CC1` (stereo unspecified), the max response came to 24%. Regarding `COc1ccc(C[C@H]2NC[C@H](O)[C@@H]2OC(C)=O)cc1`, the max response was 38.3%. The same measure, in the same setting: for `O=C(Oc1ccccc1)N1CCC[C@@]2(CCN(Cc3ccccc3)C2)C1` the value was 12.8%; for `CC(C)CCCC1(C)C=Cc2c(O)c3c(c(CCC(C)C)c2O1)OC12C(CC4CC1C(C)(C)OC2(CCC(C)C(=O)O)C4O)C3=O` (stereo unspecified), -7.14%. As to `CCOC(OCC)P(=O)(O)CCCN`, the max response was -24%. For the compound `COc1ccc2[nH]c3c(c2c1)CCN=C3C`, the max response is -15.4%. Regarding `N#CC(C#N)=Cc1ccc([N+](=O)[O-])c(O)c1`, the max response came out at 62.3%.

Still in this experiment, the particulars now being: Drosophila S3 cells, BODIPY lipid droplet/cell ratio, laser cytometry; measured here: cell number channel AC50; cells loaded with oleic acid.
The AC50 is the concentration at which the activity in the assay is half-maximal. As for `C[C@@H](CO)NC(=O)[C@@H]1C=C2c3cccc4[nH]cc(c34)C[C@H]2N(C)C1`, the concentration at half-maximal activity (AC50) was 25.1 µM [rising, partial curve, poor fit]. As to `CN1C2CCC1CC(NC(=O)c1nn(C)c3ccccc13)C2` (stereo unspecified), the AC50 is 39.8 µM [rising, single point]. Regarding `CN1CC[C@@]2(C)c3cc(O)ccc3N(C)[C@@H]12`, the AC50 was 35.5 µM [rising, single point].

`CN1CC[C@@]2(c3cccc(O)c3)Cc3nc4ccccc4cc3C[C@H]2C1`: the AC50 was 0.002 µM [falling, full curve, poor fit]. Consider `CCCN(C/C=C\I)[C@@H]1CCc2ccc(O)cc2C1`, for which the concentration at half-maximal activity (AC50) is 5.01 µM [rising, full curve, poor fit]. Take `COc1ccc(C[C@H]2NC[C@H](O)[C@@H]2OC(C)=O)cc1`: the AC50 is 0.126 µM [rising, full curve, poor fit].

Regarding `CCOC(OCC)P(=O)(O)CCCN`, the AC50 was 0.178 µM [falling, full curve, poor fit].
